Reference: article PMC4336329 (PLoS ONE, 2015)
Out of some 310,000 compounds screened, about 2,200 (0.71%) showed an effect of 50% or more. Effects have a minus sign here. This is one part of the list.

Target: human ether-à-go-go-related gene (hERG) potassium channel (human, UniProt Q12809)
Assay: primary screen, population patch clamp on CHO cells stably expressing hERG

Sequence of human ether-à-go-go-related gene (hERG) potassium channel (Q12809 whole entry, looked up): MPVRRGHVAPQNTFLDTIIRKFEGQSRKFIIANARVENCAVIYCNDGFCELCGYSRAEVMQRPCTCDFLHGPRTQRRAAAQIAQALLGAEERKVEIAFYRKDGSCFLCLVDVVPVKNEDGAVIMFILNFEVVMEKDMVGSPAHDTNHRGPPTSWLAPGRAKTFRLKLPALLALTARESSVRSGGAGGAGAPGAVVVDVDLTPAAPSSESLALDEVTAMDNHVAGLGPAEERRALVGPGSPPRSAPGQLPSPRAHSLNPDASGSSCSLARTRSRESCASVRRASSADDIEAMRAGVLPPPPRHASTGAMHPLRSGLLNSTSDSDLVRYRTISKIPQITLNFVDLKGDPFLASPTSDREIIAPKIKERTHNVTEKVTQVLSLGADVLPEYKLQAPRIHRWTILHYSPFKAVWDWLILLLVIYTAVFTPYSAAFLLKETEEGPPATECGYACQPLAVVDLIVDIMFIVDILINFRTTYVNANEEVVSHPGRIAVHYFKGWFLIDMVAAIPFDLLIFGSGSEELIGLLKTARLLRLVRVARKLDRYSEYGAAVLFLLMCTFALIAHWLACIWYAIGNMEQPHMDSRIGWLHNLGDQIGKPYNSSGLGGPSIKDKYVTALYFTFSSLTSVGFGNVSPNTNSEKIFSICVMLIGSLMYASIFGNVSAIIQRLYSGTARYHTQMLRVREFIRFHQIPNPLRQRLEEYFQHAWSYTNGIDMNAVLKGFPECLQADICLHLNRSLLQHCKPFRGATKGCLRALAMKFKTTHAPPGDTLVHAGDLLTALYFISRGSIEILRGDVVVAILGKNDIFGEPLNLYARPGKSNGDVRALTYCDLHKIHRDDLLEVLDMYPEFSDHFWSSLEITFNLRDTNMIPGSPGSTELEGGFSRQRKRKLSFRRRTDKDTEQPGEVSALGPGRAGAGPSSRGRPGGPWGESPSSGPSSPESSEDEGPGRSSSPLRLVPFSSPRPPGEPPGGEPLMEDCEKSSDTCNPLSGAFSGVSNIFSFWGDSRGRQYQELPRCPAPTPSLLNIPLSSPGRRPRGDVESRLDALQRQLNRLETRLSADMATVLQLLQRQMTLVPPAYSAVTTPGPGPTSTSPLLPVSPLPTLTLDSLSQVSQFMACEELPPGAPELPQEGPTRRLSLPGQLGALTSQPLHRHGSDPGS

SMILES | hERG current change (%, negative = inhibition) at 1uM [%]
COC(=O)C1=NN(c2ccccc2OC)C2C(=O)N(c3ccccc3OC)C(=O)C12 (centres unmarked) | 10.8
CCN(CC)c1ccc(/C=N/NC(=S)NCc2ccco2)cc1 | 6.9
COc1ccc(CCNC(=O)c2ccc(CNc3c(N4CCOCC4)c(=O)c3=O)cc2)cc1OC | 7.64
CC(CN(C)Cc1ccccc1)OC(=O)c1ccc2c(c1)OCCO2.Cl (centres unmarked) | 24.4
Cc1nn(C)c(C(=O)Nc2ccc(Cl)c([N+](=O)[O-])c2)c1Cl | 8.62
O=C(c1cccs1)N1CCCN(c2ncnc3scc(-c4ccccc4)c23)CC1 | 6.79
COc1ccccc1N1CCN(C2CCCN(C(=O)CCc3cnn(C)c3)C2)CC1 (centres unmarked) | 5.08
O=C(CSc1nnc2ccc(-c3ccncc3)nn12)N1CCCCC1 | 4.66
Cc1ccc(NC(=O)CCN2C(=O)c3ccccc3C2=O)cc1C | 8.32
COc1ccc(-c2nnc(NC(=O)C3CC3)o2)cc1 | 11.4
COc1ccc(-c2ccc3c(N)c(C(=O)NC(C)C)sc3n2)cc1OC | 12.5
Cc1nn(Cc2ccc(Cl)cc2Cl)c(Cl)c1C(=O)O | 4.01
COCCNC(=S)N1CCC(c2nc(-c3ccc(N(C)C)cc3)no2)CC1 | 3.53
CCOC(=O)c1cc2c(ccn2C)n1CC(=O)Nc1ccc(F)cc1 | 11.9
CCC(C)[C@H](NC(=O)NCc1ccccc1Cl)C(=O)OC (some centres unmarked) | 13.7
CCN(CC)CCNC(=O)CSc1c2c(nc3cc(Cl)ccc13)CCCC2 | -25.6
O=C(CSc1nc(O)cc(=O)n1-c1ccccc1)c1ccc(Br)cc1 | 10
Cc1ccc(NC(=O)NCc2nc3ccccc3n2C)cc1 | 14.9
CCOC(=O)N1CCC(N2Cc3cccc(C(=O)NCc4ccc(OC)cc4)c3C2=O)CC1 | 2.82

SMILES | hERG current change (%, negative = inhibition) at 1uM [%]
Cl.OCCNCc1cc(Br)ccc1OCc1ccccc1 | -21.3
CCOCCn1c(-c2ccc(OC)cc2)nc2ccccc21 | 3.89
CC(C)CCSc1nnc(Cn2c(=O)sc3ccccc32)n1C | 5.19
NS(=O)(=O)c1cccc(NC(=O)COC(=O)CCN2C(=O)c3ccccc3C2=O)c1 | 9.47
O=[N+]([O-])c1ccc(-c2ccc(/C=N/c3c(-c4ccco4)nc4ccccn34)o2)cc1 | 10.6
Cc1cccnc1Nc1nc(-c2ccccn2)cs1 | 8.95
O=C(NCCCN1CCOCC1)c1cccc(S(=O)(=O)Nc2ccc(F)cc2)c1 | 3.56
COc1ccc(NC(=O)CSc2nnc(CCC(=O)Nc3ccc(C)c(Cl)c3)n2C)cc1 | 6.72
CC(=O)c1c(C)[nH]c(C(=O)OCC(=O)Nc2cc(C(F)(F)F)ccc2N2CCOCC2)c1C | 4.06
Cc1cn2c(-c3ccncc3)nnc2s1 | 8.59
c1ccc(COc2cncc(-c3cccnc3)c2)cc1 | 1.76
CC(=O)Nc1ccc(S(=O)(=O)N2CCC(C(=O)NCCC(=O)NCc3ccncc3)CC2)cc1 | 8.93
CC(=O)Nc1ccc(S[C@@H](CCN2CC[C@H](O)CCC2=O)c2ccccc2)cc1 | 19.4
CC1CCCC(C)N1C(=O)CSc1nc2ccccc2c(=O)[nH]1 (centres unmarked) | 17.9
Cc1ccc(Cn2c(C(C)Nc3nc(-c4ccc(Cl)cc4)cs3)nc3cc(C(=O)NCCCO)ccc32)cc1 (centres unmarked) | 20.7
Cc1c(N(C)C(=O)COc2ccc3ccccc3c2)c(=O)n(-c2ccccc2)n1C | 7.86
Clc1ccc(N2CCOCC2)nn1 | 13.4
O=C(CCn1cccc1)Nc1ccc(OC(F)(F)F)cc1 | 17.4
CCOc1ccc(OCC)c(NS(=O)(=O)c2cccc3nsnc23)c1 | 4.02

SMILES | hERG current change (%, negative = inhibition) at 1uM [%]
CCN(CC)CCCN(Cc1cc2cc3c(cc2[nH]c1=O)OCO3)C(=S)NCCOC | 7.06
Cc1cc2nsnc2c(S(=O)(=O)N2CCN(C)CC2)c1C | 12
COc1ccccc1OCCNC(=O)Nc1ccc(Br)cc1 | 7.49
CCOc1ccc(NC(=S)NC23CN4CN(CN(C4)C2)C3)cc1 | 17.4
COc1ccc(CN2CCC(=O)N([C@H](CO)c3ccccc3)CC2)cc1OC | 11.2
CC(C)(C)c1ccc(Oc2cccc(C3CC(=O)C(C4NCCc5ccccc54)C(=O)C3n3cncn3)c2)cc1 (centres unmarked) | 9.94
O=C(Nc1ccccc1)[C@@H]1CC=C[C@@H]2CCN(Cc3ccc(Cl)c(Cl)c3)C(=O)[C@@H]21 | 8.61
CCN(CC)c1ccc(N=Cc2c(O)n(-c3ccc(Cl)cc3)c(=O)[nH]c2=O)cc1 | 18.3
O=C1/C(=C/c2ccccn2)SC(=S)N1CCc1ccccc1 | 9.02
Nc1c(C(=O)N/N=C/c2ccc([N+](=O)[O-])cc2)cnn1-c1ccccc1 | 9.95
Cc1cccc(CSc2ncc(CO)n2C)c1 | 6.66
CCCOC(=O)c1c(NC(=O)CCCn2nc([N+](=O)[O-])cc2C)sc(C(=O)OC)c1C | 13.2
COc1cc2c(cc1OC)C(CCc1ccccc1)=NCC2 | -7.68
O=C1COc2ccc(C(=O)COC(=O)Cc3ccccc3F)cc2N1 | 0.851
Cc1ccc(CCNC(=O)CNC(=S)N(Cc2ccccc2)Cc2cccnc2)cc1 | -30.1
CC(C)CCNC(=O)COc1ccc(N(C)S(=O)(=O)c2ccc(F)cc2)cc1 | -2.41
Cc1cc(O)c(Sc2ncn[nH]2)cc1NS(=O)(=O)c1ccc(Cl)cc1 | 9.19
C#CC(CC)(CC)NC(=O)c1ccc(Br)s1 | 5.87
